Measured values reported in patent publication US11685745B2, “Substituted benzoxazole and benzofuran compounds as PDE7 inhibitors” (Dart NeuroScience, LLC, priority 2017, dated 2023).

Biological target: N-terminal truncated recombinant human PDE7B enzyme (Homo sapiens (Human), UniProt Q9NP56)
Assay: biochemical

SMILES	IC50 [nM]
CC1(NC(=O)c2cc3cc(Cl)c4c(c3o2)C2(CCCCC2)NC(=O)N4)CCOCC1 [Example 360, 5′-Chloro-N-(4-methyloxan-4-yl)-7′-oxo-7′,8′-dihydro-6′H-spiro[cyclohexane-1,9′-furo[2,3-f]quinazoline]-2′-carboxamide]	10 to 100
O=C1Nc2c(Cl)cc3cc(CNCc4cnco4)oc3c2C2(CCCCC2)N1 [Example 539, 5′-Chloro-2′-{[(1,3-oxazol-5-ylmethyl)amino]methyl}-7′,8′-dihydro-6′H-spiro[cyclohexane-1,9′-furo[2,3-f]quinazoline]-7′-one]	100 to 1000
CC(C)OC1CCN(Cc2nc3cc(Cl)c4c(c3o2)C2(CCCCC2)NC(=O)N4)CC1 [Example 72, 5-Chloro-2-{[4-(propan-2-yloxy)piperidin-1-yl]methyl}-7,8-dihydro-6H-spiro[[1,3]oxazolo[5,4-f]quinazoline-9,1′-cyclohexane]-7-one]	100 to 1000
O=C1Nc2c(Cl)cc3nc(CN4CC(F)C4)oc3c2C2(CCCCC2)N1 [Example 73, 5-Chloro-2-[(3-fluoroazetidin-1-yl)methyl]-7,8-dihydro-6H-spiro[[1,3]oxazolo[5,4-f]quinazoline-9,1′-cyclohexane]-7-one]	10 to 100
CN(C)c1ccc(CNC(=O)c2cc3cc(Cl)c4c(c3o2)C2(CCCCC2)NC(=O)N4)cc1 [Example 303, 5′-Chloro-N-{[4-(dimethylamino)phenyl]methyl}-7′-oxo-7′,8′-dihydro-6′H-spiro[cyclohexane-1,9′-furo[2,3-f]quinazoline]-2′-carboxamide]	10 to 100
CN(Cc1ccco1)Cc1cc2cc(Cl)c3c(c2o1)C1(CCCCC1)NC(=O)N3 [Example 484, 5′-Chloro-2′-{[(furan-2-ylmethyl)(methyl)amino]methyl}-7′,8′-dihydro-6′H-spiro[cyclohexane-1,9′-furo[2,3-f]quinazoline]-7′-one]	100 to 1000
CO[C@@H]1CCN(Cc2nc3cc(Cl)c4c(c3o2)C2(CCCCC2)NC(=O)N4)C1 [Example 134, 5-Chloro-2-{[(3R)-3-methoxypyrrolidin-1-yl]methyl}-7,8-dihydro-6H-spiro[[1,3]oxazolo[5,4-f]quinazoline-9,1′-cyclohexane]-7-one]	10 to 100
O=C1Nc2c(Cl)cc3nc(CNCc4ccno4)oc3c2C2(CCCCC2)N1 [Example 175, 5-Chloro-2-{[(1,2-oxazol-5-ylmethyl)amino]methyl}-7,8-dihydro-6H-spiro[[1,3]oxazolo[5,4-f]quinazoline-9,1′-cyclohexane]-7-one]	10 to 100
O=C1Nc2c(Cl)cc3cc(C(=O)N4CCC(O)C4)oc3c2C2(CCCCC2)N1 (centres unmarked) [Example 411, 5′-Chloro-2′-(3-hydroxypyrrolidine-1-carbonyl)-7′,8′-dihydro-6′H-spiro[cyclohexane-1,9′-furo[2,3-f]quinazoline]-7′-one]	10 to 100
CC(C)CCNC(=O)c1cc2cc(Cl)c3c(c2o1)C1(CCCCC1)NC(=O)N3 [Example 417, 5′-Chloro-N-(3-methylbutyl)-7′-oxo-7′,8′-dihydro-6′H-spiro[cyclohexane-1,9′-furo[2,3-f]quinazoline]-2′-carboxamide]	10 to 100
Cc1nc2cc(Cl)c3c(c2o1)C1(CCCCC1)NC(=O)N3 [Example 14, 5′-Chloro-2′-methyl-6′H-spiro[cyclohexane-1,9′-oxazolo[5,4-f]quinazolin]-7′(8′H)-one]	100 to 1000
O=C1Nc2c(Cl)cc3cc(C(=O)N4CCN5CCCC5C4)oc3c2C2(CCCCC2)N1 (centres unmarked) [Example 297, 5′-Chloro-2′-{octahydropyrrolo[1,2-a]piperazine-2-carbonyl}-7′,8′-dihydro-6′H-spiro[cyclohexane-1,9′-furo[2,3-f]quinazoline]-7′-one]	10 to 100
O=C1Nc2c(Cl)cc3nc(CN4CCC(O)(C(F)(F)F)CC4)oc3c2C2(CCCCC2)N1 [Example 71, 5-Chloro-2-{[4-hydroxy-4-(trifluoromethyl)piperidin-1-yl]methyl}-7,8-dihydro-6H-spiro[[1,3]oxazolo[5,4-f]quinazoline-9,1′-cyclohexane]-7-one]	10 to 100
O=C1Nc2c(Cl)cc3nc(CNCC4CCOC4)oc3c2C2(CCCCC2)N1 (centres unmarked) [Example 148, 5-Chloro-2-{[(oxolan-3-ylmethyl)amino]methyl}-7,8-dihydro-6H-spiro[[1,3]oxazolo[5,4-f]quinazoline-9,1′-cyclohexane]-7-one]	10 to 100
O=C1Nc2c(Cl)cc3nc(CNCC(O)C(F)F)oc3c2C2(CCCCC2)N1 (centres unmarked) [Example 149, 5-Chloro-2-{[(3,3-difluoro-2-hydroxypropyl)amino]methyl}-7,8-dihydro-6H-spiro[[1,3]oxazolo[5,4-f]quinazoline-9,1′-cyclohexane]-7-one]	10 to 100
COCCN(C)Cc1cc2cc(Cl)c3c(c2o1)C1(CCCCC1)NC(=O)N3 [Example 544, 5′-Chloro-2′-{[(2-methoxyethyl)(methyl)amino]methyl}-7′,8′-dihydro-6′H-spiro[cyclohexane-1,9′-furo[2,3-f]quinazoline]-7′-one]	100 to 1000

SMILES	IC50 [nM]
CC(C)COC1CN(Cc2nc3cc(Cl)c4c(c3o2)C2(CCCCC2)NC(=O)N4)C1 [Example 68, 5-Chloro-2-{[3-(2-methylpropoxy)azetidin-1-yl]methyl}-7,8-dihydro-6H-spiro[[1,3]oxazolo[5,4-f]quinazoline-9,1′-cyclohexane]-7-one]	100 to 1000
Cc1nn(C)c(C)c1CN(C)Cc1cc2cc(Cl)c3c(c2o1)C1(CCCCC1)NC(=O)N3 [Example 535, 5′-Chloro-2′-({methyl[(trimethyl-1H-pyrazol-4-yl)methyl]amino}methyl)-7′,8′-dihydro-6′H-spiro[cyclohexane-1,9′-furo[2,3-f]quinazoline]-7′-one]	10 to 100
O=C1Nc2c(Cl)cc3cc(C(=O)NCCCN4CCCC4=O)oc3c2C2(CCCCC2)N1 [Example 434, 5′-Chloro-7′-oxo-N-[3-(2-oxopyrrolidin-1-yl)propyl]-7′,8′-dihydro-6′H-spiro[cyclohexane-1,9′-furo[2,3-f]quinazoline]-2′-carboxamide]	10 to 100
CCOc1ccc2c(n1)OCCN(C(=O)c1cc3cc(Cl)c4c(c3o1)C1(CCCCC1)NC(=O)N4)C2 [Example 394, 5′-Chloro-2′-{8-ethoxy-2H,3H,4H,5H-pyrido[3,2-f][1,4]oxazepine-4-carbonyl}-7′,8′-dihydro-6′H-spiro[cyclohexane-1,9′-furo[2,3-f]quinazoline]-7′-one]	100 to 1000
O=C1Nc2c(Cl)cc3cc(C(=O)N4CCC(N5CCCC5)CC4)oc3c2C2(CCCCC2)N1 [Example 451, 5′-Chloro-2′-[4-(pyrrolidin-1-yl)piperidine-1-carbonyl]-7′,8′-dihydro-6′H-spiro[cyclohexane-1,9′-furo[2,3-f]quinazoline]-7′-one]	100 to 1000
N#Cc1ccc(CNC(=O)c2cc3cc(Cl)c4c(c3o2)C2(CCCCC2)NC(=O)N4)cc1F [Example 339, 5′-Chloro-N-[(4-cyano-3-fluorophenyl)methyl]-7′-oxo-7′,8′-dihydro-6′H-spiro[cyclohexane-1,9′-furo[2,3-f]quinazoline]-2′-carboxamide]	100 to 1000
O=C1Nc2c(Cl)cc3cc(CN4CCS(=O)(=O)CC4)oc3c2C2(CCCCC2)N1 [Example 515, 4-{5′-Chloro-7′-oxo-7′,8′-dihydro-6′H-spiro[cyclohexane-1,9′-furo[2,3-f]quinazoline]-2′-ylmethyl}-thiomorpholine-1,1-dione]	100 to 1000
O=C1Nc2c(Cl)cc3cc(C(=O)N4CCN(c5ccc(Cl)cn5)CC4)oc3c2C2(CCCCC2)N1 [Example 329, 5′-Chloro-2′-{4-(5-chloropyridin-2-yl)piperazine-1-carbonyl}-7′,8′-dihydro-6′H-spiro[cyclohexane-1,9′-furo[2,3-f]quinazoline]-7′-one]	100 to 1000
COc1ccccc1CNC(=O)c1cc2cc(Cl)c3c(c2o1)C1(CCCCC1)NC(=O)N3 [Example 330, 5′-Chloro-N-[(2-methoxyphenyl)methyl]-7′-oxo-7′,8′-dihydro-6′H-spiro[cyclohexane-1,9′-furo[2,3-f]quinazoline]-2′-carboxamide]	100 to 1000
CN(C)C(=O)CN(C)C(=O)c1nc2cc(Cl)c3c(c2o1)C1(CCCCC1)NC(=O)N3 [Example 188, 2-{1-5-Chloro-7-oxo-7,8-dihydro-6H-spiro[[1,3]oxazolo[5,4-f]quinazoline-9,1′-cyclohexane]-2-yl-N-methylformamido}-N,N-dimethylacetamide]	10 to 100
O=C1Nc2c(Cl)cc3cc(C(=O)N4CCC(N5CCOCC5)CC4)oc3c2C2(CCCCC2)N1 [Example 453, 5′-Chloro-2′-[4-(morpholin-4-yl)piperidine-1-carbonyl]-7′,8′-dihydro-6′H-spiro[cyclohexane-1,9′-furo[2,3-f]quinazoline]-7′-one]	10 to 100
O=C1Nc2c(Cl)cc3nc(C(=O)NC[C@@H]4CCOC4)oc3c2C2(CCCCC2)N1 [Example 218, 5-Chloro-7-oxo-N-[(3S)-oxolan-3-ylmethyl]-7,8-dihydro-6H-spiro[[1,3]oxazolo[5,4-f]quinazoline-9,1′-cyclohexane]-2-carboxamide]	10 to 100
O=C1Nc2c(Cl)cc3cc(CN4CCC(O)C4)oc3c2C2(CCCCC2)N1 (centres unmarked) [Example 548, 5′-Chloro-2′-[(3-hydroxypyrrolidin-1-yl)methyl]-7′,8′-dihydro-6′H-spiro[cyclohexane-1,9′-furo[2,3-f]quinazoline]-7′-one]	100 to 1000
O=C1Nc2c(Cl)cc3cc(C(=O)NCCN4CCCC4)oc3c2C2(CCCCC2)N1 [Example 259, 5′-Chloro-7′-oxo-N-[2-(pyrrolidin-1-yl)ethyl]-7′,8′-dihydro-6′H-spiro[cyclohexane-1,9′-furo[2,3-f]quinazoline]-2′-carboxamide]	100 to 1000
CC(C)(C)C(=O)CNC(=O)c1cc2cc(Cl)c3c(c2o1)C1(CCCCC1)NC(=O)N3 [Example 326, 5′-Chloro-N-(3,3-dimethyl-2-oxobutyl)-7′-oxo-7′,8′-dihydro-6′H-spiro[cyclohexane-1,9′-furo[2,3-f]quinazoline]-2′-carboxamide]	10 to 100
COCCN1CCN(Cc2cc3cc(Cl)c4c(c3o2)C2(CCCCC2)NC(=O)N4)CC1 [Example 513, 5′-Chloro-2′-{[4-(2-methoxyethyl)piperazin-1-yl]methyl}-7′,8′-dihydro-6′H-spiro[cyclohexane-1,9′-furo[2,3-f]quinazoline]-7′-one]	100 to 1000
